Results from PubChem BioAssay AID588855 (National Center for Advancing Translational Sciences (NCATS), 2011).
“And” between values parts separate entries of the source, which are not always exact repeats. Equal entries are not always repeated. In all, about 410,000 compounds went through this assay and about 5,000 (1.2%) were called active. The inconclusive results got no clear call from the source; some entries with a clear call stand among them for comparison. The call rests on the fitted dose curve; in most records, active means well fitted inhibition curve with a large enough effect; inconclusive means small, poorly fitted or top-dose-only effect; inactive means no such curve, though single readings can be large or run the other way. Potencies of inconclusive entries are doubtful fits and often do not repeat.
Potency means the concentration at half of the fitted maximal effect; tags describe the fitted curve by direction and shape.

Experiment: qHTS for Inhibitors of TGF-b; further: nearly all actives have a fitted effect of over 65% in size
Conditions: HepG2 CAGA-GFP TGF-b/SMAD3 reporter, GFP fluorescence, 18 h, TGF-beta stimulated, 500 pg/mL final; series mostly up to 46.1 µM
Summary of the method: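 Read-out: total well GFP (ex488/em500-530) summed from mean per-cell fluorescence. Cells: HEPG2 CAGA-GFP, 1% FBS DMEM, 18 h at 37 degrees C with 500 pg/mL final TGF-beta. Unstimulated wells served as the full-inhibition control; stimulated DMSO wells = 0%.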
In the case of `CN(C)c1ccc(C(C[N+](=O)[O-])c2c(N)n(C)c(=O)n(C)c2=O)c(F)c1C#N` (stereo not drawn), the Potency is reported as inconclusive: 25.1 µM [inhibitor, single point].
In the case of `CCCn1nc(C(=O)OCC(=O)Nc2cccc(OC)c2)c2ccccc2c1=O`, the Potency is reported as inconclusive: 35.5 µM [inhibitor, single point].
For `O=C(CSc1ncc(-c2ccc(Cl)cc2)[nH]1)Nc1ccccc1F`, the Potency was inconclusive: 17.8 µM [inhibitor, partial curve, poor fit].
For `CCOc1ccc(C(=O)c2cn(Cc3cccc(OC)c3)c3cc4c(cc3c2=O)OCO4)cc1`, the Potency was inconclusive: 14.1 µM [inhibitor, partial curve].
In the case of `Cc1ccc(-n2nnc3c(=O)oc4ccccc4c32)cc1`, the Potency is reported as inconclusive: 11.2 µM [inhibitor, partial curve, poor fit].
In the case of `COc1ccc(C(CNC(=O)COc2ccc(Cl)c(C)c2)N2CCCCC2)cc1` (stereo not drawn), the Potency is reported as inconclusive: 35.5 µM [inhibitor, single point].
With `CCOC(=O)N1CCN(CCC(=O)c2ccc(Br)cc2)CC1` the Potency was “inactive”.
In the case of `Cc1ccc(S(=O)(=O)N(C)C)cc1NC(=S)NC12CC3CC(CC(C3)C1)C2`, the Potency is reported as inconclusive: 22.4 µM [inhibitor, single point].
In the case of `O=C(Nc1cccc2ccccc12)c1ccc(OC(=S)N2CCOCC2)cc1`, the Potency is reported as inconclusive: 7.94 µM [inhibitor, partial curve, poor fit].
With `COc1ccc(OC)c(NC(=O)C2CCN(S(C)(=O)=O)CC2)c1` the Potency was inconclusive: 6.31 µM [inhibitor, single point].
In the case of `Cc1cc(C)cc(NS(=O)(=O)c2ccc3[nH]c(=O)ccc3c2)c1`, the Potency is reported as “inactive”.
In the case of `Cn1c(=O)c(=O)n(C)c2cc(S(=O)(=O)N3CCc4ccccc43)ccc21`, the Potency is reported as inconclusive: 5.62 µM [inhibitor, single point].
For `COc1ccc(-n2c(SCc3ccc(C#N)cc3)nnc2-c2ccccn2)cc1`, the Potency was inconclusive: 11.2 µM [inhibitor, partial curve, poor fit].
With `CC1=NN(c2ccccc2)C(=O)C1N=Nc1cccc(O)c1` (stereo not drawn) the Potency was inconclusive: 35.5 µM [inhibitor, single point].
For `O=C(Nc1ccccc1)Nc1cccc2ccccc12`, the Potency was “inactive”.
With `Cc1cc(OCC(=O)Nc2sc3c(c2C#N)CCC(C)C3)ccc1Cl` (stereo not drawn) the Potency was inconclusive: 35.5 µM [inhibitor, partial curve, poor fit].
With `Cc1cccc(-c2ncc(CN3CCC(CO)(CCCc4ccccc4)CC3)cn2)c1` the Potency was inconclusive: 20 µM [inhibitor, single point].
For `CCOC(=O)c1ccc(N2CCN(c3ccc(F)cc3)CC2)c(NC(=O)Nc2ccc(CC)cc2)c1`, the Potency was “inactive”.
For `COC(=O)c1ccc([C@H]2Nc3ccc(S(=O)(=O)Nc4ccc(F)cc4)cc3[C@H]3C=CC[C@H]32)cc1`, the Potency was inconclusive: 6.31 µM [inhibitor, full curve].
In the case of `Cn1c(NC(=O)c2cc(Cl)ccc2Cl)cc(=O)n(C)c1=O`, the Potency is reported as “inactive”.
With `Cc1ccc(S(=O)(=O)N2CCCc3cc(NS(=O)(=O)c4ccccc4)ccc32)cc1` the Potency was active: 15.8 µM.
In the case of `Cc1ccc(OCC(=O)N(Cc2nc(-c3ccccc3)no2)C(C)C)cc1C`, the Potency is reported as inconclusive: 35.5 µM [inhibitor, single point].
With `CC(C)Cn1c([N+](=O)[O-])nc2c1c(=O)[nH]c(=O)n2C` the Potency was inconclusive: 14.1 µM [inhibitor, partial curve, poor fit].
In the case of `CCc1ccc2c(c1)c1nc(C)sc1n2CC`, the Potency is reported as “inactive”.
With `CCN(CC)c1ccc(/C=N/NC(=O)c2cnccn2)c(O)c1` the Potency was inconclusive: 35.5 µM [inhibitor, single point].
In the case of `Cc1cc(C(=O)CCl)c(C)n1CCc1ccc(Cl)cc1`, the Potency is reported as inconclusive: 22.4 µM [inhibitor, single point].
In the case of `O=C(NCc1ccccc1Cl)C(=O)NCC1OCCN1S(=O)(=O)c1ccc(F)cc1` (stereo not drawn), the Potency is reported as inconclusive: 3.55 µM [inhibitor, partial curve, poor fit].
With `Cc1ccc(NC(=O)CNCc2ccccc2Cl)cc1S(=O)(=O)N(C)C` the Potency was inconclusive: 3.98 µM [inhibitor, full curve, poor fit].
With `COc1cccc(/C=N/NC(=S)NCc2ccco2)c1OC` the Potency was inconclusive: 35.5 µM [inhibitor, single point].
For `CCCCC(=O)Nc1ccc(N2CCN(c3ccc(F)cc3)CC2)cc1`, the Potency was “inactive”.
With `Cc1ccc(-n2nnnc2SCC(=O)N2CCc3ccccc3C2)cc1` the Potency was inconclusive: 8.91 µM [inhibitor, partial curve, poor fit].
With `Nc1ncnc2c1ncn2[C@@H]1O[C@H](COP(=O)(O)O)[C@@H](O)[C@H]1O` the Potency was “inactive”.
With `Nc1nc(NCCCN2CCOCC2)nc(Nc2ccc(F)cc2)c1[N+](=O)[O-]` the Potency was inconclusive: 35.5 µM [inhibitor, single point].
For `Cn1cccc1C(=O)OCC(=O)NC1CCS(=O)(=O)C1` (stereo not drawn), the Potency was inconclusive: 35.5 µM [inhibitor, single point].
For `CN(C)CCN(C(=O)c1ccc(S(=O)(=O)N(C)C)cc1)c1nc2cc3c(cc2s1)OCCO3`, the Potency was “inactive”.
In the case of `C/C(=N\NC(=O)c1ccc([N+](=O)[O-])c(C)c1)c1ccccc1Cl`, the Potency is reported as “inactive”.
With `CCOc1ccc(CN2C(=O)c3ccccc3Sc3ccc(C(=O)NCCCN4CCOCC4)cc32)cc1` the Potency was inconclusive: 447 nM [inhibitor, full curve, poor fit] and inconclusive: 35.5 µM [inhibitor, single point].
With `O=C1CCN(Cc2ccccc2)CCN1[C@H](COc1ccccc1)Cc1ccccc1` the Potency was inconclusive: 3.16 µM [inhibitor, single point] and inconclusive: 12.6 µM [inhibitor, partial curve, poor fit].
With `CN(C(=O)COC(=O)c1ccc2c(=O)n3c(nc2c1)CCC3)C1CCS(=O)(=O)C1` (stereo not drawn) the Potency was inconclusive: 35.5 µM [inhibitor, single point].
In the case of `Cc1cc(C)cc(NS(=O)(=O)CCCS(=O)(=O)Nc2cc(C)cc(C)c2)c1`, the Potency is reported as inconclusive: 22.4 µM [inhibitor, single point].
In the case of `Cn1cc(C(c2ccccn2)c2cn(C)c3ccccc23)c2ccccc21`, the Potency is reported as inconclusive: 22.4 µM [inhibitor, partial curve, poor fit].
For `CCCNC(=O)c1cnn2c(C(F)F)cc(-c3ccccc3)nc12`, the Potency was inconclusive: 35.5 µM [inhibitor, partial curve, poor fit].
For `CNc1nc(Nc2ccc(C)c(Cl)c2)nc(N)c1[N+](=O)[O-]`, the Potency was active: 11.2 µM.
For `COc1ccc(CCNc2oc(COc3cccc(C)c3)nc2C#N)cc1OC`, the Potency was inconclusive: 31.6 µM [inhibitor, single point].
With `CCCOc1ccc(F)cc1-c1cc(C(=O)Nc2ccc(F)cc2)[nH]n1` the Potency was inconclusive: 35.5 µM [inhibitor, single point].
With `CCN1CCc2c(sc(-n3cccc3)c2C(C)NC(=O)Nc2cc(Cl)c(OC)cc2OC)C1` (stereo not drawn) the Potency was inconclusive: 35.5 µM [inhibitor, single point].
With `CC1(C(=O)NS(=O)(=O)c2cccc(F)c2)CCN1C(=O)Cc1cccs1` (stereo not drawn) the Potency was “inactive”.
In the case of `COc1ccc(C(=O)N2CCN(c3ccc([N+](=O)[O-])c(NCCc4ccc(OC)c(OC)c4)c3)CC2)cc1`, the Potency is reported as inconclusive: 2.51 µM [inhibitor, partial curve, poor fit].
For `CCN1C(=O)[C@H]2[C@@H](c3ccc(C)cc3)N3C(=O)N(c4ccccc4)C(=O)[C@@]3(Cc3ccccc3)[C@H]2C1=O`, the Potency was “inactive”.
With `CCOC(=O)c1c(C)[nH]c(C(=O)COC(=O)/C=C/c2ccc(O)c(OC)c2)c1C` the Potency was inconclusive: 3.16 µM [inhibitor, single point].
For `Cc1nnsc1C(=O)Nc1ccc(S(=O)(=O)N2CCCC(C)C2)cc1` (stereo not drawn), the Potency was inconclusive: 25.1 µM [inhibitor, single point].
For `COc1ccc(CN(C)C(=O)[C@H]2O[C@@H](n3cnc4c(N)ncnc43)[C@H](O)[C@@H]2O)cc1OC`, the Potency was inconclusive: 22.4 µM [inhibitor, partial curve, poor fit].
In the case of `Cc1nc([N+](=O)[O-])c(Br)n1CC(=O)c1ccccc1`, the Potency is reported as inconclusive: 14.1 µM [inhibitor, single point].
For `O=C(Nc1cccc(F)c1)c1ccccc1`, the Potency was “inactive”.
With `Cc1cc(O)c(Oc2cc(C)cc(O)c2O)c(O)c1` the Potency was inconclusive: 35.5 µM [inhibitor, single point].
With `O=C(Nc1ccccc1)C1CCOC1=O` (stereo not drawn) the Potency was “inactive”.
For `Cn1cc(C(=O)NS(=O)(=O)Nc2ccc(Br)cc2)c2ccccc21`, the Potency was “inactive”.
In the case of `Cc1noc(C)c1NC(=O)N(C)C[C@@H]1Oc2ccc(NC(=O)CCC(F)(F)F)cc2CC(=O)N([C@@H](C)CO)C[C@@H]1C`, the Potency is reported as inconclusive: 3.16 µM [inhibitor, single point].
For `O=C(Nc1ccc(-c2csc(Nc3cccc(C(F)(F)F)c3)n2)cc1)c1cccc(C(F)(F)F)c1`, the Potency was inconclusive: 35.5 µM [inhibitor, single point].
In the case of `C=C1CCC[C@]2(C)C[C@H]3OC(=O)C(CNCC(C)C)[C@H]3CC12` (stereo partly drawn), the Potency is reported as inconclusive: 35.5 µM [inhibitor, single point].
In the case of `O=S(=O)(Nc1nc2ccccc2nc1Cl)c1cccc(C(F)(F)F)c1`, the Potency is reported as inconclusive: 20 µM [inhibitor, partial curve, poor fit].
In the case of `Cc1cc(C(=O)OCC(=O)Nc2sc3c(c2C#N)CCC(C)C3)c2ccccc2n1` (stereo not drawn), the Potency is reported as “inactive”.
For `Cc1ccc(N2CCN(C(=O)c3c(C)oc4ncnc(N5CCCCC5)c34)CC2)c(C)c1`, the Potency was inconclusive: 35.5 µM [inhibitor, single point].
